Read counts are not given, so values of variants with three or more changes are uncertain.

Sequences and labels used below:
B1: CPEB3 Ribozyme (parent)
chain: UAACAGGGGGCCACAGCAGAAGCGUUCACGUCGCAGCCCCUGUCAGAUUCUGGUGAAUCUGCGAAUUCUGCUGUAUAUCUC

The data set covers variants of B1. Nature of the data set: self-cleavage, relative activity (ratio to wild type); higher = more cleavage; in vitro, sequencing. Put shortly:
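After error-prone PCR and barcoding, CPEB3 ribozyme mutant libraries were transcribed with T7 RNA polymerase at 37°C for 5 hours, then given 15 min with DNase I before an EDTA stop, and they cleaved during both steps. Reverse transcription with template switching preceded Illumina sequencing. Relative activity divides a variant's cleaved/total read fraction by the unmutated ribozyme's. At least 5 reads were required per variant, and three batches were averaged.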
Regarding UAACAGGGGGUCACAGCAGAAGCGUUCACGUCGCAGCCCCUGUCAGACUCUGGUGAAUCUGCGAAAUCUGCUGUAUAUCUC [C11U U48C U66A], the self-cleavage came to 0.17.

Consider UAACAGGGGGCACCAGCAGAAGCGCUCACGUCGCAGCCCCUGUCAGGUUCUGGUGAACCUGCGAAUUCUGCUGUGUAUCUC [C12A A13C U25C A47G U58C A75G], for which the self-cleavage was found to be 0.08.

Consider UAACAGGGGGUCACAGCAGAAGCGUUCACGUCGCAGCCCCUGUCAGAUUCUGGUGAAUCCGCGAAUUCCGCUGUACUUCUC [C11U U60C U69C U76C A77U], for which the self-cleavage is 0.12.

For the variant UAACAGGGGGUCACAGCUGAAGCGUUCACGUCGCAGCCCAUGUCAGAUUCUGGUGAAUCUGCGAAUUCUGCUGUAUAUCUC [C11U A18U C40A], the self-cleavage is 0.21.

As for UAACAGGGGGUCACAGCAGGAGCGUUCACGUCGCGGCCCCUGUCGUAUUCUGGUGAAUCUGCGAAUUCUGCUGUAUAUCUC [C11U A20G A35G A45G G46U], the self-cleavage was 0.04.

For UAACAGGGGGUCACAGCAGAUGCGUUCACGUUGCAGCCCCUGUCAGAUUCUGGUGAAUCUGCGGAUUCUGCUGUAUACCAC [C11U A21U C32U A64G U78C U80A], the self-cleavage was found to be 0.03.

Consider UAACAGGGGGUCACAGCAGAAGCGUCCACGUCGCAGCCCCUGUCGGAUUCUGGUGAAUCUGUGAAUUCUGCUGUAUAUCUC [C11U U26C A45G C62U], for which the self-cleavage was determined as 0.28.

Regarding UAACAGGGGGCAACGGCAGAAGCGUUCACGUCGCAGCCCCUGCCAGAUUCCGGUGAGUCUGCGAAUUCUGCUGUAUAUCUC [C12A A15G U43C U51C A57G], the self-cleavage is 0.26.

Turning to UAACAGGGGGUCACAGCAGAAGCGUUCACGUCGCAGCCCCUGUCAUAUUCUGGUGAAUCUGCGAAUCCUGCUGUAAAUCUC [C11U G46U U67C U76A], the self-cleavage came out at 0.06.

Regarding UAACAGGGGGUCACAGCUGAAGCGUUCACGUCGCAGCCCCUGUCAGAUUCUGGUGAAUCUGCGAAUUCUGCCGUAUAUCUC [C11U A18U U72C], the self-cleavage was determined as 0.18.

Turning to UAACAGGGGGUCACAGCAGAAGCGUUCACGUCGCAGCCCCUAUCAGAUUCUGGUGAAUCUGCGAAUCCUGCUGUAUAUCUC [C11U G42A U67C], the self-cleavage was determined as 0.11.

For the variant UAACAGGGGGUCACAGCAGAAGCGUUCACGUCGCUGCCCCUGUCAGACUCUGGUGAAUCUGCGAAUUCUGCCGUUUAUCUC [C11U A35U U48C U72C A75U], the self-cleavage was determined as 0.05.

With UAACAGGGGGCAGCAGCGGAAGCGUUCACGUCGCAGCCCCUGUCAGAUUGUGGUGAAUCUGCGAAUUCCGCUGUAUACCUC [C12A A13G A18G C50G U69C U78C], the self-cleavage is 0.53.

For the variant UAACAGGGGGUCACAGCAGAAGCAUUCACGUCGCAGCCCCCGUCAGAUUCAGGUGAAUCCGCGAAUUCUGCUGUAUGUCUC [C11U G24A U41C U51A U60C A77G], the self-cleavage is 0.04.

UAACAGGGGGUCACAGCAGAAGCGUUCACGUCGCAGCCCCUGUCGGAUUCCGGUGAAUCUGCGAAUUCUGCUGUAUAUCUC [C11U A45G U51C]: the self-cleavage stood at 0.13.

For the variant UAACAGGGGGCAUCAGCAGAAGCGUUCACGUCGCAGCCCCUGUCAGAUUCUGGUGAAUCUGCGAAUUCUGCUAUAUAUCUC [C12A A13U G73A], the self-cleavage was 1.01.

For UAACAGGGGGUCACAGCAGAUGCGUUCGCGUCGCAGCCCCCGUCAGAUUCUAGUGAAUCUGCGGAUUCUGCUGUAUAUCUC [C11U A21U A28G U41C G52A A64G], the self-cleavage turned out to be 0.04.

On to UAACAGGGGGUCACAGCAGAAGCCUUCACGUCGCAGCCCCUGUCAGAUUCAGGUGAAUCUGCGAAUUCUGCUGUAUAUCUC [C11U G24C U51A], for which the self-cleavage was found to be 0.2.

In the case of UAACAGGGGGCAGCAGCAGAAGCGUUCACGUCGCAGCCCCUGUCAGAUUCUGGAGAAUCUGCGAAUUCAGCCGUAUAUCUC [C12A A13G U54A U69A U72C], the self-cleavage is 0.46.

Consider UAACAGGGGGUCACAGCAGAAGGGUUCACGUCGCAGCCCCUGUCAGAUUCUCGUGAAUCUGCGAAUUCUGCUGUAUAUCUC [C11U C23G G52C], for which the self-cleavage stood at 0.05.

Turning to UAACAGGGGGUCACAGCAGAAGCGCUCACGUAGCAGCCCCUGUCAGAUUCUGGUGAAUCUGCGAAUUCUGCAGUAUAUCUC [C11U U25C C32A U72A], the self-cleavage is 0.04.

On to UAACAGGGGGUCACAGCAGGAGCGUUCACGUCGCAGCCCCUGUCAGAUUCUGGUGAAUCUGCGAAUUCAGCUGUAUAUCUC [C11U A20G U69A], for which the self-cleavage came to 0.17.

As for UAACAGGGGGCAACAGCGGAAGCGUUCACGUCGCGGCCCCUGUCAGAUUCUGGUGAAUCUGCGAAUUCUGCUGUAUAUCUC [C12A A18G A35G], the self-cleavage turned out to be 0.7.

For the variant UAACAGGGGGUCACAGCAGAAGCGUUCACGUCGCAGCCCCCGUCAGGUUCUGGUGAAUCUGCGAAUUCUGCUGUAUACCUC [C11U U41C A47G U78C], the self-cleavage worked out at 0.36.

Regarding UAACAGGGGGUCACAGCAGAAGCGUUCGCGUCGCGGCCCCCGUCAGAUUCUGGUGAAUCUGCGGAUUCUGCUGUAUAUCUC [C11U A28G A35G U41C A64G], the self-cleavage was determined as 0.52.

With UAACAGGGGGUCACAGCAGAAGCGUUAACGUCGCAGUCCCUGUCAGACUCUGGUGAAUCUGCGAACUCCGCUGUAUAUCUC [C11U C27A C37U U48C U66C U69C], the self-cleavage worked out at 0.03.

Regarding UAACAGGGGGUCACAGCAGAAGCGUUCACGUCGCAGCCCCUGUCAGAUUCUGGUGGAUCCGCGAAUUCUGCUGUAUAUCCC [C11U A56G U60C U80C], the self-cleavage was 0.15.

For UAACAGGGGGCAACGGCAGAAGCGUUCACAUCGCAGCCCCUGUCAGAUUCUGGCGAAUCUGCGAAUUCUGCUGUAUACCUC [C12A A15G G30A U54C U78C], the self-cleavage turned out to be 0.12.

Consider UAACAGGGGGUCACAGCAGAAGCGUCCUCGUCGCAUCCCCUGUCAGAUUCUGGUGAAUCUGCGAAUUCAGCCGUAUAUCUC [C11U U26C A28U G36U U69A U72C], for which the self-cleavage was determined as 0.05.

As to UAACAGGGGGUAACAGCAGAAGCGUCCACUUCGCAGCCCCUGUCAGAUUCUGGUGAAUCCGCGAAUUCCGCUGUAUAUCUC [C11U C12A U26C G30U U60C U69C], the self-cleavage turned out to be 0.09.

With UAACAGGGGGUCACAGCAGAAGCGUUCCCGUCGCAGCCCCUGUCAGAUUCUGGUGAAUCUGCGAAUUCUGCUGAAUACCUC [C11U A28C U74A U78C], the self-cleavage was 0.27.

For UAACAGGGGGUCACAGCAGAAGCGUUCACGUCGCAGCCCCUGUCAGAUUCUGGCGAAUCUGCGAAUUCCGCUGUAUAUCUC [C11U U54C U69C], the self-cleavage was found to be 0.08.

In the case of UAACAGGGGGCAUCAGCAGAAGCGCUCACGUCGCAGCCCCUGUCAGAUUCUGGUGAGUCUGCGAAUUCUGCUGUAUAUCUC [C12A A13U U25C A57G], the self-cleavage stood at 0.2.

On to UAACAGGGGGUCACAGCAGAGGCGUUCACGUCGCAGCCCCUGUCAGAUUCUGGUGAAUCUGCGAUUUCUGCUGUAUAUCUC [C11U A21G A65U], for which the self-cleavage amounted to 0.21.

The record behind these values is the RNAGym collection of RNA variant scans (doi:10.1093/nar/gkz1192).
